Data as given in paper PMC4336329 (PLoS ONE, 2015).
In all, about 310,000 compounds went through this assay and about 2,200 (0.71%) showed an effect of 50% or more. Effects have a minus sign here. The list shows a part of the results.

What follows are molecules tested against human ether-à-go-go-related gene (hERG) potassium channel (human, UniProt Q12809) (assay: primary screen, population patch clamp on CHO cells stably expressing hERG).
Chain of human ether-à-go-go-related gene (hERG) potassium channel (Q12809 whole entry, looked up): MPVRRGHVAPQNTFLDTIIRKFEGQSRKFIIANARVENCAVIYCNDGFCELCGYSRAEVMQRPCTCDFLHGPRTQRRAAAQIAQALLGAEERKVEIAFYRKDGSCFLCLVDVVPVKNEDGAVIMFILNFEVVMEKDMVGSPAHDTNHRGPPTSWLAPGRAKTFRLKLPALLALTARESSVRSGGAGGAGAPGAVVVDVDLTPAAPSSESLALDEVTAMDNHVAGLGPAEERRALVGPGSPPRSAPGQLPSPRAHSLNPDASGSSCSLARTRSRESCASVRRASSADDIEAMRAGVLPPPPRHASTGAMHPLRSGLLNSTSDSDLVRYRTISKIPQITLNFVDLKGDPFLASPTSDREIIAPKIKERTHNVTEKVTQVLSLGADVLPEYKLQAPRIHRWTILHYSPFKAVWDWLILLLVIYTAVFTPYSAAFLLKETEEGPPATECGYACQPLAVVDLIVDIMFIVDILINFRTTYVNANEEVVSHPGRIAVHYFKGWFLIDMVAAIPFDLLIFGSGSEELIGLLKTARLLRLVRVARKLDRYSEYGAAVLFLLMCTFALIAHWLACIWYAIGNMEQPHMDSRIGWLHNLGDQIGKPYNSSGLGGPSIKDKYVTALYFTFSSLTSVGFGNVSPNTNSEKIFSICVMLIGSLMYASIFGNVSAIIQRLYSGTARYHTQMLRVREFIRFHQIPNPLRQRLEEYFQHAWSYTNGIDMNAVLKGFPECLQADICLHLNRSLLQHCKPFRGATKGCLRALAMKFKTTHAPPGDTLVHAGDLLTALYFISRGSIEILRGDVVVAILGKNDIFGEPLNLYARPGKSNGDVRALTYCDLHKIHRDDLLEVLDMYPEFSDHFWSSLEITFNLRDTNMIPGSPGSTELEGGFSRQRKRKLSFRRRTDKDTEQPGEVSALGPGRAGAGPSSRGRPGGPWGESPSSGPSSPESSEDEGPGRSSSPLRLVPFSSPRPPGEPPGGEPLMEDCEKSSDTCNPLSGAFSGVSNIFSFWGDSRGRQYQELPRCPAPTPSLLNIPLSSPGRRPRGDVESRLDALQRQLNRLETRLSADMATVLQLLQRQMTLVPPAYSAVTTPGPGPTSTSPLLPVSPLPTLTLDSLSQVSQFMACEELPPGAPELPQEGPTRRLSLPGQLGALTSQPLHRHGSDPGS

SMILES	hERG current change (%, negative = inhibition) at 1uM [%]
COC(=O)c1ccc(C(=O)OC)c(NC(=S)N2CCCC2)c1	1.2
Cc1ccccc1OCC(=O)Nc1ccccc1N1CCC(C)CC1	18.9
COCC(=O)Nc1ccccc1Br	12.3
COc1cc(C2C(C#N)=C(N)Oc3n[nH]c(C)c32)ccc1OC(=O)c1ccccc1 (stereo not drawn)	6.72
O=C(O)c1cccc2c1C(=O)c1ccc(-c3ccc(F)cc3OCc3ccccc3)cc1S2(=O)=O	1.74
COc1ccc(-c2ccc(SCC(=O)Nc3cc(C)on3)nn2)cc1OC	7
COc1ccc(C)cc1NC(=O)n1ncc2cc(Cl)ccc21	16.4
CC1CCCCC1NC(=O)C1CCCN(S(=O)(=O)c2ccc(-n3cnnn3)cc2)C1 (stereo not drawn)	-13.3
COC(=O)CCC(=O)OC1(C)C(=O)C=C2C=C(C3CC3)N(C3CC3)C=C2C1=O (stereo not drawn)	14.2
CCSc1nnc(NC(=O)c2cc(C)on2)s1	9.65
Nc1cc(C(F)(F)F)ccc1NCCc1ccccn1	13.7
COc1cccc(CNC(=O)Cn2cc([N+](=O)[O-])cn2)c1	13.2
CC1CN(S(=O)(=O)N(C)C)CCN1S(=O)(=O)N(C)C (stereo not drawn)	-6.7
COc1cc(OC)c(OC)cc1CNC(=O)c1cc(=O)c2ccccc2o1	13.4
CCn1cc(CN2CCC(n3nccc3NC(=O)C3CCCC3)CC2)c(C)n1	6.12
CCCCNC(=O)Cn1c(-c2ccc(OC)cc2)noc1=O	-0.784
c1cncc(C2CCCN2)c1 (stereo not drawn)	9.38
O=C(/C(=N/N=C/c1ccc(O)c(O)c1O)c1ccccc1)c1ccccc1	6.46
Cc1c(C(=O)NCCn2ccc3ccccc32)cccc1[N+](=O)[O-]	1.53
Cc1ccc(NC(=O)COC(=O)CN2C(=O)NC3(CCCC3)C2=O)cc1Cl	2.8
CCn1c2ccccc2c2cc(/C(C)=N/O)ccc21	1.21
O=C(CNC(=O)c1ccc(F)cc1)NCc1ccc(Cl)cc1	12.9

SMILES	hERG current change (%, negative = inhibition) at 1uM [%]
O=C(NC1CCN(c2ncccn2)CC1)c1c(F)cccc1F	14.5
COc1ccc(CN(CCC(c2ccccc2)c2ccc(OC(C)C)cc2)C(=O)CCl)cc1OC (stereo not drawn)	5.42
COc1ccc(NS(=O)(=O)c2ccc3oc(=O)ccc3c2)cc1	14.9
CCN(CC)S(=O)(=O)c1ccc(NC(=O)C(OC)c2ccccc2)cc1 (stereo not drawn)	6.83
CCN(CC(=O)Nc1ccc(NC(C)=O)cc1)C(=O)COc1ccccc1-c1ccccc1	12
COc1ccc(S(=O)(=O)N2CCCC2C(=O)Nc2nccs2)cc1 (stereo not drawn)	8.59
Cc1ccc(C)c(NC(=O)CSc2nnc([C@@H](N)Cc3ccccc3)o2)c1.Cl	7.54
Cc1ccc(NCC(=O)N/N=C/c2ccncc2)cc1	17.1
COc1ccc([C@@H]2Sc3cc(OC)ccc3N(CCN(C(C)C)C(C)C)C(=O)[C@H]2OC(C)=O)cc1.Cl	-70
Brc1ccccc1OCCCOc1cccc2cccnc12	8.66
Cc1cnccc1CNC(=O)CC1C(=O)NCCN1CC(C)(C)C (stereo not drawn)	2.85
Cc1ccc(C(=O)Oc2coc(CSc3nnc(NC(=O)c4cccs4)s3)cc2=O)cc1	13.4
COc1cccc(NC(=O)N2CCC(C(=O)Nc3ccc(C)cc3C)CC2)c1	2.97
CCOC(=O)c1c(NC(=S)NC(=O)c2ccc(Cn3cc(Cl)cn3)o2)sc2c1CCC(C)C2 (stereo not drawn)	31.9
O=C(C(=O)N1CCCCCC1)c1c[nH]c2ccccc12	11.5
CCOc1cccc(N2C(=O)CC(N3CCN(c4nc5ccccc5s4)CC3)C2=O)c1 (stereo not drawn)	13.8
O=C1CCCN1CCC1CCN(C2CC(=O)N(Cc3ccc(N4CCCC4=O)cc3)C2=O)CC1 (stereo not drawn)	16.5
CCOc1ccc(NCCC(O)c2ccc(F)cc2)cc1 (stereo not drawn)	17
CCOc1cccc(=[NH+]C2CCCCC2)c2c(C)[nH]c(C)c12.[O-][Cl+3]([O-])([O-])[O-]	-33.4
CCOc1cc(/C=C/C(=O)O)ccc1OCCOc1ccccc1	8.77
CCCC(=O)n1nc(-c2ccc(C)cc2)nc1NCc1ccco1	7.95
CCOP(=O)(OCC)c1nc(-c2ccc(C)cc2)oc1NCc1ccccc1	-1.99

SMILES	hERG current change (%, negative = inhibition) at 1uM [%]
CC(C)(C)c1nnc2sc(SCC(=O)N3CCc4ccccc43)nn2c1=O	13.7
O=C(CSC1=NC(=O)C(c2ccccc2)C(=O)N1)Nc1cccc(Cl)c1 (stereo not drawn)	13.4
COc1ccc(C(=O)NC(Nc2ccccc2)C(Cl)(Cl)Cl)cc1 (stereo not drawn)	13.3
O=C(CNC(=O)C(c1ccccc1)c1ccccc1)N/N=C/c1cccnc1	2.07
CN(c1ccccc1)S(=O)(=O)c1cc(C(=O)OCC(N)=O)ccc1Cl	10.6
CCOc1ccc(C(=O)NNC2CC(=O)N(CCc3ccccc3)C2=O)cc1OC (stereo not drawn)	5.04
N#Cc1ccccc1Sc1ccccc1C(=O)N1CCOCC1	6.98
CC(=O)N1CCc2cc(Br)cc(S(=O)(=O)CCC(=O)Nc3c(C)n(C)n(-c4ccccc4)c3=O)c21	17.7
CC1(C)Cc2c(sc3nc4n(-c5ccccc5)c(=O)c(CCC(=O)O)nn4c(=O)c23)CO1	6.7
Nc1ccc(Nc2ccccc2)c(S(=O)(=O)O)c1	12.2
COc1ccccc1C/C(N)=N/OC(=O)COc1ccccc1C	13.5
COc1ccc(CNC(=O)CCc2c[nH]c3ccccc23)cc1	20.2
C=CCn1c(SCC(=O)c2ccccc2)nnc1-c1cc2ccccc2o1	-3.45
Cc1cccc(-n2c(SCC(=O)N3CCC(C(=O)O)CC3)nc3ccccc3c2=O)c1C	3.94
COc1ccc(C(=O)NCCS(=O)(=O)N2CCCCCC2)cc1	8.14
Nc1nc(NC(=O)/C=C/c2ccc(F)cc2)nn1-c1ccccc1	-6.77
COc1cc2c(cc1OC)C(c1cc(OC)c(OC)c(OC)c1)NCC2 (stereo not drawn)	9.67
NC(=O)c1ccccc1OCCOc1ccc(Br)cc1	7.05
CCc1noc(C)c1C(=O)N(C)CC(=O)Nc1cccc(OC)c1	16.3
CCC(=O)c1cc(F)c(N2CCN(S(=O)(=O)c3ccccc3)CC2)cc1C	8.83
CN(C)CCCN(C(=O)c1ccc2c(c1)CCCC2)c1nc2c(F)cccc2s1.Cl	-0.867
CCCCn1nnc(NC(=O)CC23CC4CC(CC(C4)C2)C3)n1	4.34

SMILES	hERG current change (%, negative = inhibition) at 1uM [%]
O=c1[nH]c(C(F)(F)F)nc2ccccc12	13.7
CCOC(=O)c1c(NC(=O)C2CC2)sc(C)c1CC	-1.78
CCc1ccc(-n2c(=S)sc3c(=O)n(-c4ccccc4)c(SCC(=O)O)nc32)cc1	15.5
CC(=O)N(C(C)=O)c1c(N2CCCC2)c2ccccc2oc1=O	6.2
O=C(C/C=N/OCc1c(Cl)cccc1Cl)c1cnc(-c2ccccc2)s1	16.3
COc1ccc(CN(CC(=O)NCc2ccc(F)cc2)C(=O)c2csnn2)cc1	-23.9
COc1cc2c(cc1OC)CN(C(=O)c1cc(S(=O)(=O)N3CCOCC3)ccc1C)CC2	3.88
CN(CC(=O)NC(=O)NCc1ccco1)CC(=O)Nc1ccccc1Cl	-1.27
COC(=O)CSc1ncccc1-c1nc2ccccc2[nH]1	7.42
O=C(O)C1CC(=O)N(CCc2c[nH]c3ccccc23)C1 (stereo not drawn)	16.7
O=C(CC1N=C(Cc2ccccc2)NNC1=O)N/N=C/c1ccc([N+](=O)[O-])cc1 (stereo not drawn)	-0.829
COc1ccc(OC)c(C(=O)NC(CC(N)=O)c2ccc(NCCOc3ccccc3)c([N+](=O)[O-])c2)c1 (stereo not drawn)	10.6
COc1cc(CN2CCN(CCc3ccccc3)C(CCO)C2)cc(OC)c1 (stereo not drawn)	-41.8
COc1ccc(-c2csc(-c3ccc(C(=O)O)cc3)n2)cc1	14.1
Cc1csc(NC(=O)c2c(-c3c(F)cccc3Cl)noc2C)n1	7.49
O=C(c1cnn2c(-c3ccccc3)cc(-c3ccccc3)nc12)N1CCN(Cc2ccccc2)CC1	9.08
Cc1ccc(/C=N/c2sc(Cc3ccccc3)c(C)c2C(N)=O)o1	6.35
CCN(Cc1ccccc1)c1ccc(/C=N/N2CCOCC2)cc1	5.8
Cc1ccc(OCC(=O)Nc2ccccc2Sc2ccc(Cl)cc2)c([N+](=O)[O-])n1	6.02
O=C(N/N=C/c1ccc(OCC(=O)N2CCOCC2)cc1)c1ccccc1Cl	8.33
CCO[C@H]1OC(C(=O)NCc2ccccc2)=C[C@@H](C2CC2)[C@@H]1CCCO	14.9
